Results from article PMC6919601, “Identification of Plasmodium dipeptidyl aminopeptidase allosteric inhibitors by high throughput screening” (PLoS ONE, 2019).
Hit rate of the full screen: of about 110,000 compounds, about 230 (0.21%) showed an effect of 50% or more. The list shows a part of the results.

molecular target: DPAP1 (Plasmodium falciparum, UniProt Q8IIJ9); assay: primary screen, percent inhibition; read by cleavage of a fluorogenic dipeptide substrate; higher = more effect of the substance; parameters: species or system P. falciparum D10 trophozoite lysates; single well
Sequence (Q8IIJ9 whole entry, looked up): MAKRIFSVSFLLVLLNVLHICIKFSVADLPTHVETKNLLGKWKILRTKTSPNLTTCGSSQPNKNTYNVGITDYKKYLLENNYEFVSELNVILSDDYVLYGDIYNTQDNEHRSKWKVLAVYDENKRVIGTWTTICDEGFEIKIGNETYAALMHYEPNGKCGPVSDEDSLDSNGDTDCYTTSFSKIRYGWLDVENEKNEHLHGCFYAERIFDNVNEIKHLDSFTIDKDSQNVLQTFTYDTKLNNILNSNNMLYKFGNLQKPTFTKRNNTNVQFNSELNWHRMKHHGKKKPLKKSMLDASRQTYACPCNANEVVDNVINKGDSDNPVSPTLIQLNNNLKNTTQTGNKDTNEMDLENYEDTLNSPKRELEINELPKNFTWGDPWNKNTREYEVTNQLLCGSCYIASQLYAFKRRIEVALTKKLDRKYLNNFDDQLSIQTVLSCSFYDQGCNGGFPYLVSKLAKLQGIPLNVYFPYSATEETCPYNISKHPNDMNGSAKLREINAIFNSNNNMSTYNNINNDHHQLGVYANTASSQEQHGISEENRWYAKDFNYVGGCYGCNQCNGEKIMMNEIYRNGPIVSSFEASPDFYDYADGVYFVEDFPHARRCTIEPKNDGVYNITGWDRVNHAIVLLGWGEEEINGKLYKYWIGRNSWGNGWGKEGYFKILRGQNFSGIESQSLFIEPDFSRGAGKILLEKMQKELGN
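Further: 30 min substrate incubation versus DMSO and 10 µM JCP410 controls.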

SMILES	% Inhibition @ 10 uM [%]
COCCCN(C(=O)c1sc2nc3n(c(=O)c2c1C)CCCCC3)C(C)c1ccncc1 (stereo not shown)	2.62
Cc1ccccc1C(=O)NCCn1ccc2ccccc21	3.67
Clc1ccc(-c2nn3c(-c4ccco4)nnc3c3ccccc23)cc1	-1.35
C=COCCNC(=S)Nc1ccccc1	8.01
O=C1c2cccnc2C(=O)N1Cc1ccc(S(=O)(=O)NC2CCCCCC2)cc1	-0.742
CCCNC(=O)CN(c1ccc(CC)cc1)S(C)(=O)=O	-0.795
COc1cc(OC)cc(C(=O)Nc2ccc(C)cc2C)c1	-2.32
O=C(CSc1ccc2nnc(-c3ccccn3)n2n1)c1ccccc1	2.22
O=c1cc(NCCc2c[nH]c3ccccc23)c2ccccc2o1	-1.68
CC1CCN(C(=O)CNC(=O)c2ccccc2)CC1	-4.75
N=C1S/C(=C\c2ccc(N3CCOCC3)cc2)C(=O)N1c1ccccc1Cl	-6.39
COc1ccc(-c2nonc2NC(=O)c2ccccc2Br)cc1	0.635
Cc1ccc(S(=O)(=O)N2CCN(C(=O)N3CCCCC3)CC2)c(C)c1	-3.78
CCOC(=O)c1c(NC(C)=O)sc2c1CCC(C#N)=C2Cl	-2.42
Cc1c(C(=O)N2CCN(c3ccccc3)CC2)cccc1[N+](=O)[O-]	1.74
COc1ccc(CNC2CCCC2)cc1Br	3.48
O=C(Cn1c(=O)c2cccn2c2cccnc21)NCCc1cccs1	-10.2
CC(CCCC(C)(C)O)NC1CCN(CCc2ccccc2)CC1 (stereo not shown)	4.74
COc1ccc(C2N=C(NO)c3ccccc3N2)cc1 (stereo not shown)	-0.424
COc1cc(/C=C2\SC(=O)N(CC(=O)N3CCOCC3)C2=O)ccc1OCC(=O)O	-1.11
O=C(CCC(=O)N1Cc2ccccc2Oc2ncccc21)NCc1cccnc1	-4.13
Cc1ccc(CN2CCc3c([nH]c4ccccc34)C2)s1	0.472
Cc1ccc(C)c(N2C(=O)CC(N3CCc4ccccc4C3)C2=O)c1 (stereo not shown)	-2.32
Cc1ccc(CCNC(=O)c2oc3c(c2C)-c2n[nH]cc2CC3)cc1	3.87
CC1(C)O[C@H]2[C@@H](O1)[C@@H](C(=O)NCc1ccc(Cl)cc1)O[C@@H]1OC(C)(C)O[C@@H]12	6.31
C=CCN1C(=O)C2(NC(CC(C)C)C3C(=O)N(Cc4ccccc4)C(=O)C32)c2ccccc21 (stereo not shown)	2.4
COc1cc(CNCCc2ccc(OC)c(OC)c2)ccc1O	-7.28
COc1ccc(OC)c(N(CC(=O)NC2CC3CCC2C3)S(=O)(=O)c2ccccc2)c1 (stereo not shown)	-6.77
